Measurements as given in PubChem BioAssay AID488969 (Vanderbilt High Throughput Screening Facility, 2010).
In all, about 110,000 compounds were measured (“z-score”: median about -0.1, highest 2% from about 2 on). The list shows a part of the results.

The compounds below were run against Metabotropic glutamate receptor 8 (Rattus norvegicus) (UniProt P70579) (assay: mGluR8 Gi/Go-coupled signaling modulation – cell-based, rat, thallium flux, HTS, primary screen (AID 488969)). Details: HEK293 rat mGluR8, GIRK (G protein-gated inwardly rectifying potassium channel) thallium flux, FluoZin2; at 10 µM; stronger effect = higher value; submaximal glutamate (EC20) added with thallium.
Sequence of UniProt P70579 (P70579 whole entry, looked up): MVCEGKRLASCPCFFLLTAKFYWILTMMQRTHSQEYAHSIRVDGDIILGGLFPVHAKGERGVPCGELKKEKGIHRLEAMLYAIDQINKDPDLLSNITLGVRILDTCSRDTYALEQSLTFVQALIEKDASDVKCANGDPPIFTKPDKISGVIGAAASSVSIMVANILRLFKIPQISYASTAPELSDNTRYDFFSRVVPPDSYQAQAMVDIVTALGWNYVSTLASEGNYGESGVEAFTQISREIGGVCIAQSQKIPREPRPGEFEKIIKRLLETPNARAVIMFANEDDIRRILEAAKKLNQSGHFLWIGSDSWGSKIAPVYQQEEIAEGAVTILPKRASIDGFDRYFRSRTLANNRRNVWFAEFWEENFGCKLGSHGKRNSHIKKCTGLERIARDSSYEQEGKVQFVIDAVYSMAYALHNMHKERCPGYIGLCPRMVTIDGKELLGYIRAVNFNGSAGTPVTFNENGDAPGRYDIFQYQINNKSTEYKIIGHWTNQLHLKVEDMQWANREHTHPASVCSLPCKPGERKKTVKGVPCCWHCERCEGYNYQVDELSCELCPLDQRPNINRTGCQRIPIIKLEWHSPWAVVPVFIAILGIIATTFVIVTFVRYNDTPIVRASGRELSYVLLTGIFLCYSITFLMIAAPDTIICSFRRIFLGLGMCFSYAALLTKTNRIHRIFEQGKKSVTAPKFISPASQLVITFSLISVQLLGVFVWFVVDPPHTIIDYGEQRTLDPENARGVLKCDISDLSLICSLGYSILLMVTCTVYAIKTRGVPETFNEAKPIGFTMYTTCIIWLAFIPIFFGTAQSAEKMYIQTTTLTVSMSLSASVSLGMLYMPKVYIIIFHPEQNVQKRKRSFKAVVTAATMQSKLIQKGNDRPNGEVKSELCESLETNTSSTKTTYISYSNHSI

In order of falling z-score:
1. Cc1ccc(N=C2NC(=O)CS2)cc1  2.26
2. CN1CCN(C(=S)NC(=O)/C=C/c2cccc3ccccc23)CC1  2.03
3. COc1ccc(CCNC(=O)Cn2nnc(-c3cccc(OC)c3OC)n2)cc1OC  1.8
4. Cc1oc(-c2ccc(Cl)cc2)nc1CS(=O)CC(=O)NCCCN(C)C1CCCCC1 (stereo unspecified)  1.74
5. C#CCN(C)CC/C=C1\c2ccccc2CSc2ccccc21  1.63
6. CCOC(=O)c1c(NC(=O)Cn2nc(C(F)(F)F)cc2C)sc(C)c1C  0.98
7. COc1cccc(C(=O)N/N=C/C(Br)=C/c2ccccc2)c1  0.954
8. O=C(Nc1ccn(Cc2c(F)c(F)c(F)c(F)c2F)n1)c1cccc(Cn2cc([N+](=O)[O-])cn2)c1  0.808
9. CCOc1cc(C(=O)OCC(=O)NCc2ccco2)cc(OCC)c1OCC  0.575
10. Cc1c(NC(=O)CSc2ncn[nH]2)c(=O)n(-c2ccccc2)n1C  0.565
11. O=C(O)c1cccc(S(=O)(=O)Nc2ccc(O)cc2Sc2nc3ccccc3s2)c1  0.537
12. Cc1cc2ccccc2c(=O)n1CC(=O)N(C)c1ccc(F)cc1  0.502
13. CCN=C1SC(CC(=O)Nc2ccccc2OCC)C(=O)N1CC (stereo unspecified)  0.408
14. CCNC(=S)SCCOc1ccc(C)cc1  0.376
15. CCc1ccc(NC(=O)CSc2nc3n[nH]c(C)c3c(=N)n2-c2cccc(OC)c2)cc1  0.339
16. Cc1ccsc1/C=N/Nc1nc(Cl)c(Cl)cc1Cl  0.292
17. S=C(NCc1ccc(Cl)cc1)NC1CCCCC1  0.172
18. CCC(C)(C)n1nnnc1C(c1cccc(C#N)c1)N1CCN(c2cccc(C)c2C)CC1 (stereo unspecified)  0.169
19. CCNC(=O)n1nccc1C(C)Oc1cccc(C(F)(F)F)c1 (stereo unspecified)  0.145
20. CCOC(=O)Cc1csc(NS(=O)(=O)Cc2ccccc2)n1  0.143
21. CCOC(=O)C(O)(NC(=O)c1cccnc1)C(F)(F)F (stereo unspecified)  0.126
22. CN(C)CCCNC1=CC(=O)OC12CCCCC2  0.108
23. CCCCc1c(O)nc(SCC(=O)N2CCOCC2)[nH]c1=O  0.0929
24. O=C(O)CSc1nccn1-c1cccc(Cl)c1  0.0771
25. Cc1ccccc1OCC(=O)Nc1ccc(N2CCN(C(=O)C(C)C)CC2)c(Cl)c1  0.064
26. Cc1nn(Cc2ccc(F)cc2)c(C)c1NC(=O)c1nn(C)cc1Cl  0.0506
27. Cc1ccc(S(=O)(=O)C2(C(=O)NC3CCCC3)CC2)cc1  0.0369
28. O=C(Cn1nnc(-c2ccccc2-n2cnnn2)n1)N1CCCCC1  0.026
29. COc1ccccc1C(CC(=O)Nc1ccc(C)c(C)c1)c1ccc(OC(C)C)cc1 (stereo unspecified)  0.0227
30. COc1cccc(/C=N/n2c(N)c(S(=O)(=O)c3cccs3)c3nc4ccccc4nc32)c1OC  0.0205
31. O=C(O)C1CC(=O)N(c2ccc(Br)cc2)C1 (stereo unspecified)  -0.00342
32. C=C(C)COc1ccc2c(C)c(C)c(=O)oc2c1OCC(=C)C  -0.0219
33. c1ccc(OCCCCN2CCOCC2)cc1  -0.0323
34. CC(C)(C)c1nc(CN2CCOCC2)cc(CN2CCOCC2)c1O  -0.0386
35. CCCN(CCC)S(=O)(=O)c1ccc(NC(=O)C2CCCO2)cc1 (stereo unspecified)  -0.0696
36. C#CCn1c(=NC(=O)c2cccs2)sc2cccc(OC)c21  -0.0768
37. O=C(CN1C(=O)S/C(=C/c2cccs2)C1=O)N1CCOCC1  -0.0771
38. CCc1ccc(NC(=O)c2ccccc2NC(=O)C2CCCO2)cc1 (stereo unspecified)  -0.0852
39. CSCc1cc(N2CCOCC2)nc(SCc2ccc(Cl)c(Cl)c2)n1  -0.0965
40. CCN1C(=O)CC(C(=O)O)SC1=Nc1ccc(OC)cc1 (stereo unspecified)  -0.109
41. CCOc1cc(/C=N/N=C(\N)c2nonc2N)cc(Br)c1OCc1cccc2ccccc12  -0.124
42. COc1ccc(OC)c(-n2c(-c3ccccc3)n[nH]c2=S)c1  -0.134
43. CCN1C(=O)/C(=C/c2nc3ccccc3c(=O)n2-c2ccccc2)c2ccccc21  -0.148
44. COc1ccc(OCCSc2ncccn2)cc1  -0.163
45. COC(=O)c1cc(OC)c(OC)cc1NC(=O)CSc1ccc(C)cc1  -0.178
46. CCOc1ccc(/C=C/C(=O)Nc2cccc(C(C)=O)c2)cc1  -0.188
47. COC(=O)Cc1ccc(NC(=S)NCc2ccc(F)cc2)cc1  -0.19
48. CCN(CC)Cc1c(O)ccc2c([N+](=O)[O-])c(C)n(-c3ccc(OC)cc3)c12  -0.194
49. Cc1ccc(S(=O)(=O)C/N=C(/NC(=S)N(c2ccccc2)c2ccccc2)c2ccccc2)cc1  -0.238
50. CCN(C#N)c1nc(N(C)C)nc(N(C)C)n1  -0.25
51. CCc1nn(CC(=O)N2CCN(Cc3ccc4c(c3)OCO4)CC2)c(=O)c2cc3occc3n12  -0.254
52. NC(=O)CC[C@H](NC(=O)c1ccc(F)cc1)C(=O)OCC(=O)Nc1ccc(N2CCOCC2)cc1  -0.255
53. Cc1ccc(S(=O)(=O)Nc2ccccc2/C=N/c2nc3ccccc3n2C(C)C)cc1  -0.263
54. O=C(CSCc1ccc(Cl)cc1)N1CCOCC1  -0.305
55. CC1CCN(c2ccc(C(=O)Nc3nnc(C4CC4)s3)cc2[N+](=O)[O-])CC1  -0.311
56. O=C(O)c1ccc(COCC(F)(F)F)cc1  -0.34
57. COc1cc(C2NC(=O)NC(c3ccccc3)=C2C(C)=O)ccc1OCC#N (stereo unspecified)  -0.392
58. CC(=O)Nc1ccc(Nc2nc(C)c([N+](=O)[O-])c(Nc3ccccc3)n2)cc1  -0.396
59. COc1ccc(CCNC2CC(C)N(C)CC2C)cc1OC (stereo unspecified)  -0.428
60. Cc1ccc(C)c(NC(=O)c2ccc3ccccc3n2)c1  -0.43
61. COC(=O)C1=C(C)NC(C)=C(C(=O)OC)C1C1CC=CCC1 (stereo unspecified)  -0.488
62. COc1cc(OC)c(OC)cc1/C=N/N(C)c1ccccc1  -0.544
63. CC1CCCCN1CC(=O)NCc1ccc2c(c1)OCO2 (stereo unspecified)  -0.58
64. CCCCCCC(=O)Nc1ccc(C(=O)N/N=C/c2cccnc2)cc1  -0.6
65. Cc1ccc(NP(=O)(c2ccc(N(C)C)cc2NC(=O)c2cccs2)N2CCOCC2)cc1Cl (stereo unspecified)  -0.604
66. Cc1cccc(OCCC(=O)Nc2ccc(S(=O)(=O)N3CCCC3)cc2)c1  -0.642
67. Cc1ccc(Cl)c2c1NC(=O)C2(O)CC(=O)c1ccc(Br)cc1 (stereo unspecified)  -0.648
68. COc1ccc(CCNc2ccncn2)cc1  -0.654
69. O=C(COC(=O)c1ccc(Cl)nc1)Nc1ccc(S(=O)(=O)N2CCCC2)cc1  -0.776
70. CCOc1ccc(NC(=O)C2CCN(c3nnnn3-c3ccccc3)CC2)cc1  -0.883
71. CSc1ccccc1NC(=O)c1cnc2n(c1=O)CCS2  -1.65
